Experimental data taken from PMC12679992.
These are yes or no findings as the source states them, for the method shown. Binding seen in cells or lysates may run through a third protein. Some entries that bind do so weakly or less than the wild type.

Protein sequences, listed by entry. Tags and fused reporters are not part of them. Lines headed by an entry give the natural chain unless they say otherwise; changes in a name come on top. Chains listed by the source or under a name are the forms on record and can include a tag or linker. Residues count along the entry.
UniProt P62330: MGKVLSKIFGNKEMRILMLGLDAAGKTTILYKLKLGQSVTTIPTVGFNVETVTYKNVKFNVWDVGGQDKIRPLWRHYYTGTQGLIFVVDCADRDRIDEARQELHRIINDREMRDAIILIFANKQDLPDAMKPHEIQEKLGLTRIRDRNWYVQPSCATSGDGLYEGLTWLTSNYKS
Flag-ErbB3 (wild type) (P21860, residues 20-1342): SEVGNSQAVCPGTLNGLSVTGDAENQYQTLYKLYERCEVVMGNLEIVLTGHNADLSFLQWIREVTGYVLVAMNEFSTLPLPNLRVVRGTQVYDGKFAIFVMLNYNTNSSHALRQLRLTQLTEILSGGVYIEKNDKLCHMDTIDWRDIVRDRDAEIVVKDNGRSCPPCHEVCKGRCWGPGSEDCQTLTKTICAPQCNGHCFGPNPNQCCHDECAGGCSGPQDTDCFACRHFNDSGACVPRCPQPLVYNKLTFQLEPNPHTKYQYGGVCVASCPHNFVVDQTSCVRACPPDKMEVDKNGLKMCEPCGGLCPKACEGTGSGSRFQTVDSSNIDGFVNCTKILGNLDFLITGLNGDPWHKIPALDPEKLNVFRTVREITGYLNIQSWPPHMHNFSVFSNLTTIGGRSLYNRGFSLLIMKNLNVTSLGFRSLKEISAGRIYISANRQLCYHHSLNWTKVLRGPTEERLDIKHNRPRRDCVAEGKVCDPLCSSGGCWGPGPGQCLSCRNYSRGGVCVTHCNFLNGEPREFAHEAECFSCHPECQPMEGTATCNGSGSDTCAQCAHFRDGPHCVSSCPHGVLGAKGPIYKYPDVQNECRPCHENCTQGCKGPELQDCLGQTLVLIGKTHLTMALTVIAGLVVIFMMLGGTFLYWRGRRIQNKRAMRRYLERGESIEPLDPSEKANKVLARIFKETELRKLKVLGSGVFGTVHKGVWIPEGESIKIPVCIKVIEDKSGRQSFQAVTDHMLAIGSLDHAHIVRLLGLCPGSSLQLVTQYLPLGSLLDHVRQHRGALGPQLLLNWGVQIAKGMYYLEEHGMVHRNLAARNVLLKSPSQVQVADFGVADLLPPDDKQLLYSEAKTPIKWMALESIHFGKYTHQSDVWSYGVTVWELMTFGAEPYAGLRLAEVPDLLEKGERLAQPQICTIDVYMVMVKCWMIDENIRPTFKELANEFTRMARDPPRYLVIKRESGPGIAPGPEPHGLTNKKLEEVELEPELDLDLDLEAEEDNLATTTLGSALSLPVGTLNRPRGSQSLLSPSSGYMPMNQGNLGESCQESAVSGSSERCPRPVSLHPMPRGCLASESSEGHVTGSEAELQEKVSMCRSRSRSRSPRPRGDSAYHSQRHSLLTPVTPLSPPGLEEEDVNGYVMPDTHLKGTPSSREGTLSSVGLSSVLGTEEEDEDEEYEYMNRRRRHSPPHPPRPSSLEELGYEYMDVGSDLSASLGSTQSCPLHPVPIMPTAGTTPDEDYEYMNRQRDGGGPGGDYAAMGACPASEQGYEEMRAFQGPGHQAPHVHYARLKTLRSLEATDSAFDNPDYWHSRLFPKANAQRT
LL866/7AA mutant Flag-ErbB3 (P21860, form named): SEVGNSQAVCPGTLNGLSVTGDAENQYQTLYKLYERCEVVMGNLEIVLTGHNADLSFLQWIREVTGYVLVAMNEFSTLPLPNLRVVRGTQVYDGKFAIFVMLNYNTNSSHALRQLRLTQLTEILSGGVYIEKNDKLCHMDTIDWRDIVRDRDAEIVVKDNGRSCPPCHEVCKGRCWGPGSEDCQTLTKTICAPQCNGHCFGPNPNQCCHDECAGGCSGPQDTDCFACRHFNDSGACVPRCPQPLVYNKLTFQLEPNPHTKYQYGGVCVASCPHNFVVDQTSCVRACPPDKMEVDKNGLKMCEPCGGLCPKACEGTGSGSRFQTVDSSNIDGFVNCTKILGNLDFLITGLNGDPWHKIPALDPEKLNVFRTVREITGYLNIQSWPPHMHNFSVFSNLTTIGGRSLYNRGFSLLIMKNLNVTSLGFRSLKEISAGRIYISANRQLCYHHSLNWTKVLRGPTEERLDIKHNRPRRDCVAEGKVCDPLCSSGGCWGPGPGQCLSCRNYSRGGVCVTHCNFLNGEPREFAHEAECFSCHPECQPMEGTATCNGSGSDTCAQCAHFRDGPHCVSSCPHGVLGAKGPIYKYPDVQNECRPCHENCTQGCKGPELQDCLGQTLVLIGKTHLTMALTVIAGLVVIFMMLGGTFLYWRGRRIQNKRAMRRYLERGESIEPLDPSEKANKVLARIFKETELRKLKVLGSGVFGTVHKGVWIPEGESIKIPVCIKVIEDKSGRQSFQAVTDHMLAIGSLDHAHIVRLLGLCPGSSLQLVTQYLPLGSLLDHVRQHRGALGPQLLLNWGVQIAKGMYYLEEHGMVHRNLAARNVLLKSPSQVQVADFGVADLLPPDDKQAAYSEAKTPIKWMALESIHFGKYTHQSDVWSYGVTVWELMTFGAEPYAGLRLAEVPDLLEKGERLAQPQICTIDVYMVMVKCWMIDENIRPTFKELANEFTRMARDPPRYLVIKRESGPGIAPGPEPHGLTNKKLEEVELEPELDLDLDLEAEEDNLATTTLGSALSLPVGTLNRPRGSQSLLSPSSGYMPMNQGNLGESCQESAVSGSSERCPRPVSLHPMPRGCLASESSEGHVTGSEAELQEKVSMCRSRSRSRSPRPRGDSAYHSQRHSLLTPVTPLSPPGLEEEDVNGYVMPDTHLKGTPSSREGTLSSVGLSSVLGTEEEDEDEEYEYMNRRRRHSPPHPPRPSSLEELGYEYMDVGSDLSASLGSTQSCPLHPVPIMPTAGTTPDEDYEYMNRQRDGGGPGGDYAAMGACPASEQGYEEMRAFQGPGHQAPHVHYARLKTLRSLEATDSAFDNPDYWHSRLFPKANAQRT

What was measured:
[1] = molecular target: ADP-ribosylation factor 6 (Arf6) (human (endogenous in MCF10A)) (UniProt P62330); assay: co-IP; immunoprecipitation of endogenous Arf6 from MCF10A lysates (1% Triton X-100, 100 mM NaCl, 50 mM Tris-HCl pH 7.4), blots for GGA3 and Rabaptin5; cells transfected with control or ErbB3 siRNA, PQ or vehicle for 10 min
[2] = molecular target: ErbB3 (HER3) receptor (human (endogenous in MCF10A)) (UniProt P21860); assay: co-IP; immunoprecipitation of endogenous ErbB3 (antibody 2F12) from MCF10A lysates (1% NP-40, 0.5% deoxycholate, 0.1% SDS, 150 mM NaCl, 50 mM Tris pH 8.0, 1 mM EDTA), blots for GGA3 and Rabaptin5; with or without 30 min primaquine (PQ); IgG as negative control
[3] = molecular target: Arf6 (ectopically expressed) (UniProt P62330); assay: co-IP; Arf6, GGA3 and Rabaptin5 expressed ectopically in HEK293T cells with or without WT or LL866/7AA ErbB3; immunoprecipitation of Arf6, blots for ErbB3, GGA3 and Rabaptin5
Flag-ErbB3 (wild type) = Flag-ErbB3 (wild type) (UniProt P21860); assay: co-IP; GGA3 overexpressed with or without ErbB3 WT or LL866/7AA in HEK293T cells; immunoprecipitation of ErbB3, blot for GGA3
[4] = molecular target: LL866/7AA mutant Flag-ErbB3 (UniProt P21860); assay: as above

Row | Binder | binding [1] | binding [2] | binding [3] | binding (Flag-ErbB3 (wild type)) | binding [4]
1 | Rabaptin5 (ectopically expressed) (protein, UniProt Q15276 1-862) MAQPGPASQPDVSLQQRVAELEKINAEFLRAQQQLEQEFNQKRAKFKELYLAKEEDLKRQNAVLQAAQDDLGHLRTQLWEAQAEMENIKAIATVSENTKQEAIDEVKRQWREEVASLQAVMKETVRDYEHQFHLRLEQERTQWAQYRESAEREIADLRRRLSEGQEEENLENEMKKAQEDAEKLRSVVMPMEKEIAALKDKLTEAEDKIKELEASKVKELNHYLEAEKSCRTDLEMYVAVLNTQKSVLQEDAEKLRKELHEVCHLLEQERQQHNQLKHTWQKANDQFLESQRLLMRDMQRMEIVLTSEQLRQVEELKKKDQEDDEQQRLNKRKDHKKADVEEEIKIPVVCALTQEESSAQLSNEEEHLDSTRGSVHSLDAGLLLPSGDPFSKSDNDMFKDGLRRAQSTDSLGTSGSLQSKALGYNYKAKSAGNLDESDFGPLVGADSVSENFDTASLGSLQMPSGFMLTKDQERAIKAMTPEQEETASLLSSVTQGMESAYVSPSGYRLVSETEWNLLQKEVHNAGNKLGRRCDMCSNYEKQLQGIQIQEAETRDQVKKLQLMLRQANDQLEKTMKDKQELEDFIKQSSEDSSHQISALVLRAQASEILLEELQQGLSQAKRDVQEQMAVLMQSREQVSEELVRLQKDNDSLQGKHSLHVSLQQAEDFILPDTTEALRELVLKYREDIINVRTAADHVEEKLKAEILFLKEQIQAEQCLKENLEETLQLEIENCKEEIASISSLKAELERIKVEKGQLESTLREKSQQLESLQEIKISLEEQLKKETAAKATVEQLMFEEKNKAQRLQTELDVSEQVQRDFVKLSQTLQVQLERIRQADSLERIRAILNDTKLTDINQLPET |  |  | binds |  | 
2 | GGA3 (overexpressed) (protein, UniProt Q9NZ52 1-723) MAEAEGESLESWLNKATNPSNRQEDWEYIIGFCDQINKELEGPQIAVRLLAHKIQSPQEWEALQALTVLEACMKNCGRRFHNEVGKFRFLNELIKVVSPKYLGDRVSEKVKTKVIELLYSWTMALPEEAKIKDAYHMLKRQGIVQSDPPIPVDRTLIPSPPPRPKNPVFDDEEKSKLLAKLLKSKNPDDLQEANKLIKSMVKEDEARIQKVTKRLHTLEEVNNNVRLLSEMLLHYSQEDSSDGDRELMKELFDQCENKRRTLFKLASETEDNDNSLGDILQASDNLSRVINSYKTIIEGQVINGEVATLTLPDSEGNSQCSNQGTLIDLAELDTTNSLSSVLAPAPTPPSSGIPILPPPPQASGPPRSRSSSQAEATLGPSSTSNALSWLDEELLCLGLADPAPNVPPKESAGNSQWHLLQREQSDLDFFSPRPGTAACGASDAPLLQPSAPSSSSSQAPLPPPFPAPVVPASVPAPSAGSSLFSTGVAPALAPKVEPAVPGHHGLALGNSALHHLDALDQLLEEAKVTSGLVKPTTSPLIPTTTPARPLLPFSTGPGSPLFQPLSFQSQGSPPKGPELSLASIHVPLESIKPSSALPVTAYDKNGFRILFHFAKECPPGRPDVLVVVVSMLNTAPLPVKSIVLQAAVPKSMKVKLQPPSGTELSPFSPIQPPAAITQVMLLANPLKEKVRLRYKLTFALGEQLSTEVGEVDQFPPVEQWGNL |  |  | binds | binds | no binding

Next, values leading:

Row | binding [1] | binding [2] | binding [3] | binding (Flag-ErbB3 (wild type)) | binding [4] | Binder
3 | binds | binds |  |  |  | Rab GTPase-binding effector protein 1 (Rabaptin5) (protein, UniProt Q15276 1-862) MAQPGPASQPDVSLQQRVAELEKINAEFLRAQQQLEQEFNQKRAKFKELYLAKEEDLKRQNAVLQAAQDDLGHLRTQLWEAQAEMENIKAIATVSENTKQEAIDEVKRQWREEVASLQAVMKETVRDYEHQFHLRLEQERTQWAQYRESAEREIADLRRRLSEGQEEENLENEMKKAQEDAEKLRSVVMPMEKEIAALKDKLTEAEDKIKELEASKVKELNHYLEAEKSCRTDLEMYVAVLNTQKSVLQEDAEKLRKELHEVCHLLEQERQQHNQLKHTWQKANDQFLESQRLLMRDMQRMEIVLTSEQLRQVEELKKKDQEDDEQQRLNKRKDHKKADVEEEIKIPVVCALTQEESSAQLSNEEEHLDSTRGSVHSLDAGLLLPSGDPFSKSDNDMFKDGLRRAQSTDSLGTSGSLQSKALGYNYKAKSAGNLDESDFGPLVGADSVSENFDTASLGSLQMPSGFMLTKDQERAIKAMTPEQEETASLLSSVTQGMESAYVSPSGYRLVSETEWNLLQKEVHNAGNKLGRRCDMCSNYEKQLQGIQIQEAETRDQVKKLQLMLRQANDQLEKTMKDKQELEDFIKQSSEDSSHQISALVLRAQASEILLEELQQGLSQAKRDVQEQMAVLMQSREQVSEELVRLQKDNDSLQGKHSLHVSLQQAEDFILPDTTEALRELVLKYREDIINVRTAADHVEEKLKAEILFLKEQIQAEQCLKENLEETLQLEIENCKEEIASISSLKAELERIKVEKGQLESTLREKSQQLESLQEIKISLEEQLKKETAAKATVEQLMFEEKNKAQRLQTELDVSEQVQRDFVKLSQTLQVQLERIRQADSLERIRAILNDTKLTDINQLPET
4 | binds | binds |  |  |  | Golgi-associated gamma adaptin ear containing ADP-ribosylation factor-binding protein 3 (GGA3) (protein, UniProt Q9NZ52 1-723) MAEAEGESLESWLNKATNPSNRQEDWEYIIGFCDQINKELEGPQIAVRLLAHKIQSPQEWEALQALTVLEACMKNCGRRFHNEVGKFRFLNELIKVVSPKYLGDRVSEKVKTKVIELLYSWTMALPEEAKIKDAYHMLKRQGIVQSDPPIPVDRTLIPSPPPRPKNPVFDDEEKSKLLAKLLKSKNPDDLQEANKLIKSMVKEDEARIQKVTKRLHTLEEVNNNVRLLSEMLLHYSQEDSSDGDRELMKELFDQCENKRRTLFKLASETEDNDNSLGDILQASDNLSRVINSYKTIIEGQVINGEVATLTLPDSEGNSQCSNQGTLIDLAELDTTNSLSSVLAPAPTPPSSGIPILPPPPQASGPPRSRSSSQAEATLGPSSTSNALSWLDEELLCLGLADPAPNVPPKESAGNSQWHLLQREQSDLDFFSPRPGTAACGASDAPLLQPSAPSSSSSQAPLPPPFPAPVVPASVPAPSAGSSLFSTGVAPALAPKVEPAVPGHHGLALGNSALHHLDALDQLLEEAKVTSGLVKPTTSPLIPTTTPARPLLPFSTGPGSPLFQPLSFQSQGSPPKGPELSLASIHVPLESIKPSSALPVTAYDKNGFRILFHFAKECPPGRPDVLVVVVSMLNTAPLPVKSIVLQAAVPKSMKVKLQPPSGTELSPFSPIQPPAAITQVMLLANPLKEKVRLRYKLTFALGEQLSTEVGEVDQFPPVEQWGNL
